According to paper PMC4336329 (PLoS ONE, 2015):
The campaign covered roughly 310,000 compounds. About 2,200 (0.71%) showed an effect of 50% or more. Effects have a minus sign here. The list shows a part of the results.

Biological target: human ether-à-go-go-related gene (hERG) potassium channel (human, UniProt Q12809)
Assay: primary screen, population patch clamp on CHO cells stably expressing hERG

human ether-à-go-go-related gene (hERG) potassium channel, sequence (Q12809 whole entry, looked up): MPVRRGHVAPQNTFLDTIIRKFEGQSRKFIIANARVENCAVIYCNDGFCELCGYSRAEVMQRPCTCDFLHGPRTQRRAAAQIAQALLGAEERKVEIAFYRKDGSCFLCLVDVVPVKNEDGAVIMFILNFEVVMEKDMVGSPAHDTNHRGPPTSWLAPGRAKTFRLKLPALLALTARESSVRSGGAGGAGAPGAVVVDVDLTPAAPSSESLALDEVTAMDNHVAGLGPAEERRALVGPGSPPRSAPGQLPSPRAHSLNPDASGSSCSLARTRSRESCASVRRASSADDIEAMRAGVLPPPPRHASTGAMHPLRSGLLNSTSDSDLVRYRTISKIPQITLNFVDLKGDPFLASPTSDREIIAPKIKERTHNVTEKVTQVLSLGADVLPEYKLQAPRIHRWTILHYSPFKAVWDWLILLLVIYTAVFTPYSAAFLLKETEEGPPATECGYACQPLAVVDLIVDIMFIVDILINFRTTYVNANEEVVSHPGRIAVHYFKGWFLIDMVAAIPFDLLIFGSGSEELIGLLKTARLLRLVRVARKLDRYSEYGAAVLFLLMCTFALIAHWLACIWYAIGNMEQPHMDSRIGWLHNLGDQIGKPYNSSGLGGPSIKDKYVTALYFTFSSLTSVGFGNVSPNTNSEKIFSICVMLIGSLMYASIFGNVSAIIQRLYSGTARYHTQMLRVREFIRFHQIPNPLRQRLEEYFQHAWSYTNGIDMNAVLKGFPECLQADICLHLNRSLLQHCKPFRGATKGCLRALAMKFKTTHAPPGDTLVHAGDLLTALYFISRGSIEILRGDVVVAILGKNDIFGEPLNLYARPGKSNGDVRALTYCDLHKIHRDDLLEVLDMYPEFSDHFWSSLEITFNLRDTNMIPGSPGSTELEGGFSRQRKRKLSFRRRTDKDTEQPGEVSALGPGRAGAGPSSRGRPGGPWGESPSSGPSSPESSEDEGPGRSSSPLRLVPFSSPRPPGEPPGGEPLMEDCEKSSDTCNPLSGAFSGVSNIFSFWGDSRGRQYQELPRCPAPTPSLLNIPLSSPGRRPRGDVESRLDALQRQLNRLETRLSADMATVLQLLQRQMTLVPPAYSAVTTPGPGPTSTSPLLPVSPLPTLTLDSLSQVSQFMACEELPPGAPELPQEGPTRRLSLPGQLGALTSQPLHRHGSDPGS

Row | SMILES | hERG current change (%, negative = inhibition) at 1uM [%]
1 | O=C(CCNS(=O)(=O)c1ccc(Cl)cc1)NCc1cccnc1 | 15.7
2 | CC(NC(=O)C1CCCN(C(=O)N(C)C)C1)c1ccccc1 (stereo not drawn) | 6.22
3 | N#Cc1ccc(/C=N/NC(=O)c2cccc(S(=O)(=O)N3CCOCC3)c2)cc1 | 10.1
4 | O=C(CN1CCN(Cc2ccccc2)CC1)Nc1nc2ccccc2s1 | -24.1
5 | C=CCNc1ncnc2ccccc12 | 18.2
6 | Cc1ccc2c(C)cc[n+](CCCS(=O)(=O)[O-])c2c1 | 6.56
7 | CC(C)c1ccc(-c2c(C#N)c(N)nc3c2CCCCC3)cc1 | 10.3
8 | CCn1c(SCc2nc(N)nc(N3CCCCC3)n2)nc2c1c(=O)n(C)c(=O)n2C | 0.506
9 | CCc1ccc(OC(=O)c2ccn(CC)n2)cc1 | 6.53
10 | Cc1oc2cc3oc(=O)c(CC(=O)NCCCC(=O)O)c(C)c3cc2c1C | 23.6
11 | Cc1cccc(C)c1N(CC(=O)NCc1ccc(F)cc1)C(=O)c1csnn1 | 11.3
12 | CN(Cc1cccnc1)C(=O)c1ccc2nc(Cc3ccccc3F)oc2c1 | 10.1
13 | Cc1nc2sc(C(c3ccc(Cl)cc3)N3CCOCC3)c(O)n2n1 (stereo not drawn) | 0.0309
14 | CCn1c(C)nnc1SCC(=O)Nc1ccc2c(c1)OCCO2 | 5.21
15 | CC(c1ccccc1)N1CCn2c(nc3cc(NS(C)(=O)=O)ccc32)C1 (stereo not drawn) | 4.9
16 | Cc1ccc(C)c(-c2nnc(NC(=O)Cc3ccc(F)cc3)o2)c1 | 16.8
17 | Cn1c(=O)cc(Nc2ccccc2)[nH]c1=O | 30.1
18 | C=C(Cl)COc1cc(C)cc2oc(=O)cc(CC)c12 | 11.6
19 | COCC(=O)N1CCC(Oc2ccc(C(=O)NCc3cnc(C)cn3)cc2)CC1 | 13
20 | COc1ccc(NS(=O)(=O)c2cccc(C(=O)Nc3ccccc3C(=O)O)c2)cc1 | 12.1
21 | COCCCNC(=S)NNC(=O)c1cc(Cl)c(O)c(Cl)c1 | 11.3
22 | CCc1ccc(CNCCNCC(C)O)cc1.Cl (stereo not drawn) | 5.43
23 | Nc1nc(SCC(=O)Nc2ccccc2)[nH]c(=O)c1-c1ccccc1 | 7.28

Row | SMILES | hERG current change (%, negative = inhibition) at 1uM [%]
24 | COc1ccc(CCN2CN(S(=O)(=O)c3ccc(OC)cc3)c3nc4ccccc4nc32)cc1 | 12.3
25 | CCc1ccc(NC(=O)CSc2nc3ccccc3c(=O)n2CCCC(=O)NCCCN2CCOCC2)cc1 | -26.4
26 | CC(C)Oc1ccc(CN=C(N)N=C(N)N)cc1Cl | 12.8
27 | S=C(NCCc1ccccc1)N/N=C/c1cccs1 | 12.5
28 | Nn1c(SCc2nc3ccccc3[nH]2)nnc1-c1ccccc1 | 14
29 | Cc1ccc(Cl)cc1NC(=S)N(CCCN1CCOCC1)Cc1ccco1 | -3.45
30 | CCOC(=O)Cc1c(C)nc2c(-c3ccccc3OC)c(C)nn2c1C | -2.56
31 | CCN(C(=O)COC(=O)c1cccnc1SC)C1CCS(=O)(=O)C1 (stereo not drawn) | 13
32 | C#Cc1cccc(NC(=O)CSc2nnc(-c3ccc(C(F)(F)F)cn3)o2)c1 | 9.17
33 | C/C(=N\NC(=O)c1ccc(C)cc1)c1c(C)[nH]n(-c2ccccc2)c1=O | 12.8
34 | O=C(Cn1c(C(=O)NCCCN2CCOCC2)cc2sccc21)c1ccccc1 | 12
35 | CC1CN(C(=O)COC(=O)c2nn(-c3ccccc3)c(=O)c3ccccc23)CC(C)O1 (stereo not drawn) | 16.8
36 | COc1ccc(CN2C3CCCC2CC(NC(=O)Nc2cccc(C)c2)C3)cc1 (stereo not drawn) | -71.5
37 | COC(=O)Nc1ccc(S(=O)(=O)N2CCCC(C(=O)NC3CCS(=O)(=O)C3)C2)cc1 (stereo not drawn) | 7.53
38 | O=C(/C=C/c1ccccc1[N+](=O)[O-])c1ccccc1Br | 11.1
39 | O=C(NCCc1ccccc1)c1ccc(-n2cnnn2)cc1 | 4.61
40 | COc1ccccc1OCCC(=O)Nc1cccc(S(=O)(=O)N2CCCCC2)c1 | 13.7
41 | COc1cc(C(C(=O)NC(C)(C)C)N(Cc2ccc3c(c2)OCO3)C(=O)c2cnccn2)cc(OC)c1OC (stereo not drawn) | 10.5
42 | CCC(=Nc1ccc(OC)cc1OC)c1c(O)[nH]c(=O)[nH]c1=O | 14.4
43 | Cc1sc(NC(=O)CCCC(=O)O)c(C#N)c1C | 3.88
44 | CS(=O)(=O)N(CC(O)Cn1c2ccccc2c2ccccc21)c1ccccc1 (stereo not drawn) | 10.5
45 | CNC(=S)NC1CC2CCCC(C1)N2Cc1ccccc1OC (stereo not drawn) | 7.16
46 | O=C(Cn1c(-c2cncs2)nc2ccccc21)NC1CCCC1 | -1.71

Row | SMILES | hERG current change (%, negative = inhibition) at 1uM [%]
47 | COCCn1c(C)c(C(=O)O)sc1=S | 5.64
48 | CON(C)S(=O)(=O)c1ccc2c(c1)NC(=O)C1CCCN21 (stereo not drawn) | 3.24
49 | CC1CCCN(C(=O)COC(=O)Cc2c(F)cccc2Cl)C1 (stereo not drawn) | 6.83
50 | O=C1N(c2ccccc2)C2CS(=O)(=O)CC2N1c1ccc(Br)cc1 (stereo not drawn) | -11.6
51 | O=C(Nc1ccccc1)c1ccc(NCCN2C(=O)CCC2=O)c([N+](=O)[O-])c1 | 12.7
52 | CNC(=O)Oc1ccc2c(c1)[C@]1(C)CCN(C)C1N2C.O=S(=O)(O)O (stereo partly drawn) | 8.03
53 | CC12CC(O)C3c4ccc(O)cc4CCC3C1CCC2=O (stereo not drawn) | 17.5
54 | Cc1ccc(C(C(=O)NC2CCCC2)N(Cc2ccco2)C(=O)CCC(=O)Nc2cc(C)on2)cc1 (stereo not drawn) | 14.8
55 | CC(=O)C1=C(c2ccccc2)NC(=O)NC1c1ccc2c(c1)OCO2.CC(=O)O (stereo not drawn) | 18.4
56 | Cc1ccccc1/C=N\NC(=O)c1csnn1 | 5.9
57 | Cc1ccc(NC(=O)CSc2nnc([C@@H](N)Cc3c[nH]c4ccccc34)o2)c(C)c1.Cl | 0.382
58 | COC(=O)CSc1nc2ccc(N)cc2s1 | 13.1
59 | Cc1ccccc1OCCC(=O)Nc1cccc(S(=O)(=O)Nc2ccccc2Cl)c1 | 6.96
60 | CCCCN(CC)c1nc(N)c2c(N)nc(OCC)cc2c1C#N | 22.9
61 | O=C(C1CC1)N1CCc2cc(Br)cc(S(=O)(=O)NCC3COc4ccccc4O3)c21 (stereo not drawn) | 7.21
62 | CCn1c(C(=O)O)c(CC(=O)Nc2ccc(Br)cc2C)c2ccccc21 | 9.9
63 | CCCNC(=O)COc1coc(CN2CCN(c3ccc(F)cc3)CC2)cc1=O | 16.8
64 | COC(=O)C1=C(c2ccccc2OCc2ccccc2)C[C@@H]2CC[C@H]1N2C(=O)NCCCOC(C)C | 10.6
65 | O=C1N2CN(C(c3ccccc3)c3ccccc3)CN=C2SC1(CO)CO | 5.23
66 | CC(C)CNC(=S)N(CCN(C)C)Cc1cc2cc3c(cc2[nH]c1=O)OCO3 | 16.6
67 | COC(=O)c1ccc(-n2nnnc2SCc2nn[nH]n2)cc1 | 14.3
68 | CCOC(=O)N1CCN(C(=O)C(CC)c2ccccc2)CC1 (stereo not drawn) | 14.6
69 | C=CCNC(=S)/C(=C(/[O-])c1ccc([N+](=O)[O-])cc1)[n+]1ccccc1 | 9.06

Row | SMILES | hERG current change (%, negative = inhibition) at 1uM [%]
70 | O=C(O)C(=O)O.O=S(=O)(c1ccc(Cl)cc1)N1CCN(Cc2ccncc2)CC1 | -11.1
71 | OCCOc1ccccc1 | 14.6
72 | CN1C(=O)N(C)C(NC(=O)Nc2ccccc2)C1NC(=O)Nc1ccccc1 (stereo not drawn) | 9.11
73 | Cc1cc(C(=O)N2CCOCC2)ccc1[N+](=O)[O-] | 3.84
74 | Cc1ccc(NC(=O)C2CCN(S(=O)(=O)c3ccc4c(c3)CCCC(=O)N4)CC2)cc1N(C)C | 5.6
75 | Cc1ccc(S(=O)(=O)N(C)CCCC(=O)Nc2cccc3ccccc23)cc1 | -2.05
76 | Cc1c(C(=O)NCc2ccccn2)oc2ccc(Br)cc12 | -9.75
77 | CCNC(=S)Nc1ccc(Cl)c(C(F)(F)F)c1 | 3.22
78 | CCN1CCN(C(=O)c2ccccc2N(C)S(=O)(=O)c2ccc(C)cc2)CC1 | 4.82
79 | CCc1cccc(OCCCCNCCCOC)c1.O=C(O)C(=O)O | 7.35
80 | COc1cccc(-c2csc(NC(=O)C3CC3)n2)c1 | 16.7
81 | O=C(NNC(=O)C1CC1c1ccccc1)Nc1cccc(Cl)c1 (stereo not drawn) | 11.3
82 | COc1ccccc1C(=O)NCCC(=O)N(Cc1ccco1)Cc1cccs1 | 4.67
83 | Cc1nc2cc(NC(=O)c3ccc(Cl)cc3)ccc2n1C | 3.76
84 | Cc1ccc(/C=N/Nc2cn[nH]c(=O)n2)o1 | 7
85 | CC(C)NC(=O)CN(C(=O)CCC(=O)Nc1nccs1)c1ccc2c(c1)OCO2 | 11.1
86 | COc1ccc(-n2nnnc2CNC(=O)c2ccc(S(=O)(=O)N3CCOCC3)cc2)cc1 | 12.8
87 | O=C(O)c1ccccc1OC(C(=O)Nc1cc(Cl)cc(Cl)c1)c1ccccc1 (stereo not drawn) | 13.6
88 | CC1Cc2cc(S(=O)(=O)NCCc3ccccc3)ccc2N1C(=O)C1CC1 (stereo not drawn) | 18.9
89 | Cc1ccccc1CN1C(=O)C2(OCCCO2)c2ccccc21 | -2.01
90 | COc1ccc(C2C3=C(CC(C)(C)CC3=O)Nc3nc(C)nn32)cc1OC (stereo not drawn) | 14.4
